This passage reports enrichment ratio results from a collection of fitness landscapes (doi:10.1126/science.1257360).

The chains are these.
B1: PhoQ; a variant is named by its letters at X, in order, P23837 (parent)
chain: MKKLLRLFFPLSLRVRFLLATAAVVLVLSLAYGMVALIGYSVSFDKTTFRLLRGESNLFYTLAKWENNKLHVELPENIDKQSPTMTLIYDENGQLLWAQRDVPWLMKMIQPDWLKSNGFHEIEADVNDTSLLLSGDHSIQQQLQEVREDDDDAEMTHSVAVNVYPATSRMPKLTIVVVDTIPVELKSSYMVWSWFIYVLSANLLLVIPLLWVAAWWSLRPIEALAKEVRELEEHNRELLNPATTRELTSLVRNLNRLLKSERERYDKYRTTLTDLTHSLKTPLXXLQXXLRSLRSEKMSVSDAEPVMLEQISRISQQIGYYLHRASMRGGTLLSRELHPVAPLLDNLTSALNKVYQRKGVNISLDISPEISFVGEQNDFVEVMGNVLDNACKYCLEFVEISARQTDEHLYIVVEDDGPGIPLSKREVIFDRGQRVDTLRPGQGVGLAVAREITEQYEGKIVAGESMLGGARMEVIFGRQHSAPKDE

The other results are listed elsewhere or left out. A value given as a limit tells only on which side of the number the result lay.

The variants in this experiment derive from B1. Nature of the experiment: enrichment ratio after two sorts for PhoP signalling (ratio (wild type AVST 3.29)); higher = more functional. The following applies: with PhoP (E. coli).
As for PDMS, the enrichment ratio was not above 0.25. The value for DEAG was not above 0.25; that for CISR was not above 0.25; that for IMAF was not above 0.25. The value for LVEL was not above 0.25; that for ELMV was not above 0.25. As to LFFM, the enrichment ratio was not above 0.25. The value for KTSI was not above 0.25; that for TFHS was not above 0.25; that for YDVW was not above 0.25. The figure for SPPP is not above 0.25; for KKYN it is not above 0.25. The value for HCKA was not above 0.25; that for RSDF was not above 0.25; that for QLTG was not above 0.25. Consider GEPP, for which the enrichment ratio was not above 0.25. The value for RNIE was not above 0.25. Regarding AEDD, the enrichment ratio was not above 0.25. The figure for TQPL is not above 0.25; for RWLG it is not above 0.25.

As to NNKA, the enrichment ratio was not above 0.25. Take YAFF: the enrichment ratio is not above 0.25. The value for YLRY was not above 0.25; that for IWTC was not above 0.25; that for AFMP was not above 0.25.

For QPAI, the enrichment ratio is not above 0.25. The value for YQEP was not above 0.25; that for VLEG was not above 0.25.

For VPMS, the enrichment ratio is not above 0.25. The value for NIGS was not above 0.25; that for LYRS was not above 0.25; that for MPAT was not above 0.25. As to TYPE, the enrichment ratio is not above 0.25. The figure for ADKG is not above 0.25. The value for LFKV was not above 0.25; that for YLFW was not above 0.25. The figure for IYTW is not above 0.25; for AQAG it is 9.01; for NLAR it is not above 0.25. With TNEN, the enrichment ratio was not above 0.25. The value for LHAD was not above 0.25; that for VPCH was not above 0.25; that for TWLM was not above 0.25. RQFM: the enrichment ratio is not above 0.25. The value for DHQT was not above 0.25. The figure for LVFG is not above 0.25.

Take PLMD: the enrichment ratio was not above 0.25. VWKW: the enrichment ratio was not above 0.25. The figure for KNAQ is not above 0.25; for MFKD it is not above 0.25; for EDIM it is not above 0.25. As for HSES, the enrichment ratio is not above 0.25. The value for LVFR was not above 0.25. On to YGFV, for which the enrichment ratio is not above 0.25.

As for KSGM, the enrichment ratio was not above 0.25. The value for VSLS was 2.58; that for TKYE was not above 0.25. The figure for TIFC is not above 0.25; for VQGS it is not above 0.25; for LMCK it is not above 0.25.

Turning to TEWA, the enrichment ratio was 38.4. The value for EEIE was not above 0.25; that for MMDM was not above 0.25. The value for QMDQ was not above 0.25. The value for QLVP was not above 0.25; that for IPVS was not above 0.25; that for SQYT was not above 0.25.

AFHT: the enrichment ratio was not above 0.25. The figure for NLRA is not above 0.25. The figure for TLWD is not above 0.25; for GDAM it is not above 0.25; for MVGV it is not above 0.25. The figure for RQIC is not above 0.25; for HNTP it is not above 0.25.

Take RAYM: the enrichment ratio is not above 0.25. Regarding KGVH, the enrichment ratio is not above 0.25. The value for MWMF was not above 0.25; that for FLYA was not above 0.25; that for GGIM was 13.9. The value for VIPF was not above 0.25; that for ADVV was 8.21.

Turning to IITQ, the enrichment ratio is not above 0.25. The figure for HMYC is not above 0.25. The value for NMSP was not above 0.25.
